From ChEMBL document CHEMBL5308541, “MAIP: An Open-Source Tool to Enrich High-Throughput Screening Output and Identify Novel, Druglike Molecules with Antimalarial Activity” (ACS Med Chem Lett, 2023)
Out of some 150,000 compounds screened, about 540 (0.36%) showed an effect of 50% or more. This is one part of the list.

Each compound was assayed on Plasmodium falciparum (assay: Primary screen in NF54 nanoGlo assay, in single point, at 2uM, 72h; a lower Z score goes with more inhibition). Conditions: timepoint 72 hour.
Format: functional, Erythrocyte
`FC(F)(F)c1cccc(CCN[C@H]2CCN(c3ccccc3)C2)c1` was tested, and the “% Inhibition” value was 2% and the Z score was -0.35.
`C1CC(COC2COCCC2NC2CCC3(CCNCC3)CC2)C1` (stereo unspecified) was tested, and the “% Inhibition” value was -19% and the Z score was 3.37.
In the case of `c1cc(NC[C@H]2CCCO2)ncc1-c1ccc(N2CCCC2)nc1`, the “% Inhibition” value is reported as -5% and the Z score is reported as 1.
`Nc1nc(CCCNC2CCN(c3ccc(C(F)(F)F)cn3)CC2)cs1` was tested, and the “% Inhibition” value was -2% and the Z score was 0.39.
For `COc1cc(NC(=O)N(C)CCc2cn[nH]c2)cc(OC)c1OC`, the “% Inhibition” value was -9% and the Z score was 1.74.
`CN1CCCN(CCN2CCOCC2)CC12CCNCC2` was tested, and the “% Inhibition” value was -11% and the Z score was 2.23.
In the case of `Clc1ccc(-c2cc3ncnc(NC[C@H]4CN(c5nncs5)CCO4)c3s2)cc1`, the “% Inhibition” value is reported as -8% and the Z score is reported as 1.16.
`CNc1nc(N2CCC(c3nccn3Cc3ccncc3)CC2)ncc1F` was tested, and the “% Inhibition” value was 5% and the Z score was -1.07.
For `CN1C2CCC1CC(NCc1cnn(-c3ccc(Cl)cc3)n1)C2` (stereo unspecified), the “% Inhibition” value was 2% and the Z score was -0.36.
With `Cn1cc(N2CCC[C@H](NC(=O)c3cc(-c4ccccc4)[nH]n3)C2)cn1` the “% Inhibition” value was -3% and the Z score was 0.51.
With `Cc1nn(C)c2nc(NC3COCC3N3CCOCC3)sc12` (stereo unspecified) the “% Inhibition” value was -8% and the Z score was 1.39.
With `O=C(NCC1CCC2(CCOCC2)C1O)c1ccccc1OC1CCCCC1` (stereo unspecified) the “% Inhibition” value was -11% and the Z score was 1.98.
For `CC(C)n1c(=O)[nH]c2ccc(C(=O)N3CCC(NS(N)(=O)=O)CC3)cc21`, the “% Inhibition” value was -3% and the Z score was 0.51.
With `Cc1cnc(CN2CC(O)C(Cc3ccnc4ccccc34)C2)c(C)c1O` (stereo unspecified) the “% Inhibition” value was -4% and the Z score was 0.81.
`OCC1CCN(c2ccc(CNc3ncnc4sccc34)cc2)CC1` was tested, and the “% Inhibition” value was -5% and the Z score was 0.93.
`C[C@H]1COc2ccc(-c3cncnc3)cc2CN1C(=O)CN1CCCCCC1` was tested, and the “% Inhibition” value was -7% and the Z score was 1.29.
`COCCNC(=O)[C@@H]1Cc2ccc(cc2)Oc2ccc(O)c(c2)C(=O)N[C@@H]([C@@H](C)O)C(=O)N[C@@H](C)C(=O)N1` was tested, and the “% Inhibition” value was -6% and the Z score was 1.1.
With `COc1ccc(-c2n[nH]cc2CNc2nccc(-c3ccccn3)n2)cc1` the “% Inhibition” value was 2% and the Z score was -0.32.
With `Cc1nn(C)c(C)c1NC(=O)C(C)NCC(c1ccccc1)c1c(-c2ccccc2)[nH]c2ccccc12` (stereo unspecified) the “% Inhibition” value was 9% and the Z score was -1.34.
With `c1ccc(Cn2c3c(c4ccccc42)CCN2CCCC32c2ccccc2)cc1` (stereo unspecified) the “% Inhibition” value was -7% and the Z score was 1.21.
With `c1cc(CNc2ncnc3ccccc23)cc(-c2nc(-c3ccncc3)no2)c1` the “% Inhibition” value was -6% and the Z score was 1.
`COc1cc(C)nc(N2CCC(c3ccc(C)nc3)CC2)n1` was tested, and the “% Inhibition” value was 11% and the Z score was -2.34.
`O=C(O)c1nc(-c2ccnc(NCCN3CCOCC3)c2)n2c1ccc1ccccc12` was tested, and the “% Inhibition” value was -1% and the Z score was 0.22.
For `CC(C)N1CCC(N2CCN(C(=O)N[C@H](c3ccccc3F)c3nccn3C)CC2)CC1`, the “% Inhibition” value was 2% and the Z score was -0.26.
For `O=C(c1ccc(Cn2ccnc2)cc1)N1CC[C@H](Oc2cnc3ccccc3n2)C1`, the “% Inhibition” value was 1% and the Z score was -0.19.
For `Cc1nc2ccc(C(=O)NCCNc3cccnc3)cc2s1`, the “% Inhibition” value was -10% and the Z score was 1.93.
For `CC(O)CN1CCN(C(=O)C(=O)N2CCC(C)CC2)C(C)C1` (stereo unspecified), the “% Inhibition” value was -1% and the Z score was 0.25.
`Cn1cc(-c2cccc(CN[C@@H](Cc3cccnc3)c3cccc(Cl)c3)c2)cn1` was tested, and the “% Inhibition” value was 6% and the Z score was -1.22.
For `C[C@H](NC1CCN(CC(F)F)CC1)c1ccc(-c2cncnc2)cc1`, the “% Inhibition” value was 8% and the Z score was -1.48.
`CN1CCC(N2CCN(Cc3c[nH]nc3-c3ccc(F)cc3F)CC2)CC1` was tested, and the “% Inhibition” value was -8% and the Z score was 1.43.
In the case of `CCc1nc(CN2CCC(c3nccc(-c4cnn(C)c4)n3)CC2)n[nH]1`, the “% Inhibition” value is reported as 3% and the Z score is reported as -0.39.
`CN1CCC(NCc2cn(-c3ccc4nc[nH]c4c3)nn2)CC1` was tested, and the “% Inhibition” value was -5% and the Z score was 0.82.
In the case of `CN1CCN(CCOc2ccccc2CN(C)Cc2cc(-c3cccnc3)no2)CC1`, the “% Inhibition” value is reported as -10% and the Z score is reported as 1.92.
`CCc1cc2c(NCC3CCN(Cc4cccc(C)c4)CC3)ncnc2s1` was tested, and the “% Inhibition” value was -7% and the Z score was 1.27.
`Cc1ccccc1-c1cccc(C(=O)NCCN2CCC(O)CC2)c1` was tested, and the “% Inhibition” value was -4% and the Z score was 0.78.
In the case of `CC1(C)CC(NCCCc2ccccc2F)CC(C)(C)N1`, the “% Inhibition” value is reported as 8% and the Z score is reported as -1.25.
With `CC[C@H](NC(=O)c1cc(C)nc2c(C)cccc12)c1nc(C)no1` the “% Inhibition” value was -5% and the Z score was 0.69.
With `CN(C)c1ncncc1N1CCC(C(=O)N2CCC(N3CCCCC3)CC2)CC1` the “% Inhibition” value was 20% and the Z score was -3.4.
For `CCc1cc(N2CCC(N3CCC[C@H]3C(N)=O)CC2)nc(-c2ccncc2)n1`, the “% Inhibition” value was 10% and the Z score was -1.83.
For `CN(C)Cc1cc(O[C@H]2CCN(Cc3cccc4cnccc34)C2)ccn1`, the “% Inhibition” value was 2% and the Z score was -0.33.
With `Cc1cc2c(N3C[C@H](C(N)=O)[C@@H](c4cnn(C)c4)C3)nccn2n1` the “% Inhibition” value was 14% and the Z score was -3.01.
For `CCOCCN(C)Cc1cnc2ccsc2c1`, the “% Inhibition” value was 7% and the Z score was -1.54.
`COc1ccc2oc(C=Cc3ccnnc3)cc2c1` was tested, and the “% Inhibition” value was 0% and the Z score was -0.05.
For `C[C@@H](CN(C)CCO)NCC1(N2CCCCC2)CCCCC1`, the “% Inhibition” value was 0% and the Z score was -0.09.
In the case of `C[C@H]1c2cccn2CCN1CC1CCC2(CC1)OCCO2`, the “% Inhibition” value is reported as -1% and the Z score is reported as 0.23.
In the case of `CC(C)(C)OC(=O)N1C2CCC1CN(C(=O)c1cnn3c(-c4ccccc4)ccnc13)CC2` (stereo unspecified), the “% Inhibition” value is reported as -2% and the Z score is reported as 0.34.
For `CC(C)(C)c1cccc(OCCCN2CCC(c3nc4cc(Cl)ccc4o3)CC2)c1`, the “% Inhibition” value was -8% and the Z score was 1.22.
For `C[C@H]1CN(c2cccc(F)c2)CCN1c1nccc(-c2cnccn2)n1`, the “% Inhibition” value was -9% and the Z score was 1.81.
In the case of `CNc1cc(N2CCC[C@H](c3cc(N4CCCC4)nc(C)n3)C2)nc(N)n1`, the “% Inhibition” value is reported as -1% and the Z score is reported as 0.14.
In the case of `Cn1ncc2c(N)nc(NC3CCCC(CO)C3)nc21` (stereo unspecified), the “% Inhibition” value is reported as -10% and the Z score is reported as 1.67.
With `CCOc1cc(CNC[C@H]2CCCN(CCOC)C2)ccc1OCCn1ccnc1` the “% Inhibition” value was 15% and the Z score was -3.15.
For `c1cc(-c2ccccc2CN2CCNCC2)cc(-n2cccn2)c1`, the “% Inhibition” value was 1% and the Z score was -0.25.
`Cn1ccnc1[C@@H]1OCC[C@H]1CNc1nccc(-c2cnccn2)n1` was tested, and the “% Inhibition” value was 6% and the Z score was -1.11.
With `O=C(CC1COC(=O)C1)N[C@@H](c1ccccc1)[C@H](O)c1ccccc1` (stereo partly specified) the “% Inhibition” value was 1% and the Z score was -0.18.
`C1CCCC(NCC2CCN(C3CCCC3)CC2)CC1` was tested, and the “% Inhibition” value was 1% and the Z score was -0.16.
In the case of `C[C@H]1CCCCN1Cc1cncc(-c2cccc(C(F)(F)F)c2)c1`, the “% Inhibition” value is reported as 12% and the Z score is reported as -2.15.
`COc1ccc(-c2cc(NC3CC3)nc(N)n2)c2cccnc12` was tested, and the “% Inhibition” value was 0% and the Z score was 0.
`COc1cccc(CNc2ccc3nc(C4CC4)sc3c2)c1` was tested, and the “% Inhibition” value was -3% and the Z score was 0.47.
`COc1ccc2c(c1)C[C@H](c1nnc(-c3ccccc3F)o1)CO2` was tested, and the “% Inhibition” value was 5% and the Z score was -1.05.
For `COCc1nc(CNC(=O)CCNC(=O)c2ccc(F)cc2)no1`, the “% Inhibition” value was -10% and the Z score was 1.58.
With `Cn1cc(CNC[C@H](O)c2ccc(F)c(F)c2)c(-c2cc3ccccc3o2)n1` the “% Inhibition” value was 19% and the Z score was -3.4.
In the case of `COc1ccc(-c2nnc(NCc3ccc4cn[nH]c4c3)o2)cc1`, the “% Inhibition” value is reported as -5% and the Z score is reported as 0.95.
In the case of `Cn1nnc(C(=O)N2CCCCC23CCCCCC3)n1`, the “% Inhibition” value is reported as 64% and the Z score is reported as -13.81.
With `O=C(c1ccc2cc[nH]c2c1)N1CC(CO)C(CN2CCC(CO)CC2)C1` (stereo unspecified) the “% Inhibition” value was 12% and the Z score was -2.65.
In the case of `CN(C)c1nccnc1N1CCC(N2CCC(O)CC2)CC1`, the “% Inhibition” value is reported as -5% and the Z score is reported as 0.96.
In the case of `c1cc(-c2ccc3cc[nH]c3c2)c2ccncc2c1`, the “% Inhibition” value is reported as 6% and the Z score is reported as -1.28.
`CCN(C)c1ccnc(NCc2cc3cc(Cl)ccc3[nH]2)n1` was tested, and the “% Inhibition” value was 3% and the Z score was -0.42.
In the case of `O=C(c1cc(-c2cccc(Cl)c2)[nH]n1)N1CCN(Cc2cn3ccccc3n2)CC1`, the “% Inhibition” value is reported as -12% and the Z score is reported as 1.82.
